The values below come from PubChem BioAssay AID463173 (ICCB-Longwood Screening Facility, Harvard Medical School, 2010).

SMILES strings stand for the structures. In all, about 52,000 compounds went through this assay and about 1,700 (3.3%) were called active. No stated cut-off is given here; in the data, active means survival mostly below about 52% (no sharp cut-off); inactive means mostly above about 56%. Some of the results follow.

The assay has as its system Wild type. Description: growth inhibition of S. aureus wild type versus tarO mutant, primary screen, teichoic acid synthesis inhibitors, RN4220, OD600 (AID 463173). The settings on record: S. aureus RN4220 wild type/DeltatarO growth, OD600, 18 h, stronger effect = lower value, screened at 18.75 µg/mL (by protocol).
Regarding `COc1ccc(C(=O)Nc2cc(C)c(O)c(-c3nc4ccccc4s3)c2)cc1OC`, the survival is inactive: 80%.

`O=C(CN1C(=O)COc2ccc(S(=O)(=O)NC3CCCC3)cc21)Nc1ccc(Cl)cc1`: the survival was inactive: 68%. Regarding `CCOC(=O)c1[nH]c(C)c(C(=O)NC(CC)Cc2ccccc2)c1C` (stereo unspecified), the survival was inactive: 84%.

Turning to `O=C(Nc1cccc(-c2cn3cccnc3n2)c1)c1cc(Br)ccc1Cl`, the survival is inactive: 76%. With `Cc1ccc2c(c1)N(CC(=O)NCCc1ccc(Cl)cc1)C(=O)c1cccnc1O2`, the survival was inactive: 153%. For `Cn1c(-n2cccc2)c(-c2c(-c3ccccc3)[nH]c3c2c(=O)[nH]c(=O)n3C)c(=O)[nH]c1=O`, the survival is inactive: 93%. As for `COc1cccc(CNC(=O)c2ccc3c(c2)nc2n3CCOC2)c1`, the figure is inactive: 57%; as for `Cc1ccc(-c2nnn3c2nc(NCC(C)c2ccccc2)c2ccccc23)cc1` (stereo unspecified), inactive: 92%; as for `CCOc1ccc(CNC(=O)c2ccc(CS(=O)Cc3ccc(Cl)cc3)o2)cc1` (stereo unspecified), inactive: 79%.

For the compound `CCN(Cc1ccccc1)C(=O)CN1C(=O)COc2ccc(S(=O)(=O)NC3CCCC3)cc21`, the survival was inactive: 68%.

Turning to `CCOC(=O)CSc1nc2sc3c(c2c(=O)n1-c1ccccc1)CC(C(C)C)OC3` (stereo unspecified), the survival is inactive: 108%. On to `COc1cccc(CNCCSc2nnnn2C)c1OCc1ccccc1F`, for which the survival is inactive: 70%. For the compound `CCc1ccc2oc(C(=O)Nc3sc4c(c3C(=O)NC)CCCC4)cc(=O)c2c1`, the survival is inactive: 85%. Regarding `CCOc1ccc(C(=O)Nc2cccc(OCc3cc(=O)n4cc(C)sc4n3)c2)cc1`, the survival was inactive: 80%. Take `CCCCOC(=O)c1cccc(NC(=O)c2cc3ccccc3o2)c1`: the survival is active: 0%.

For `O=C(Nc1ccc(Cl)cc1F)c1cc(S(=O)(=O)NCc2ccc3c(c2)OCO3)ccc1F`, the survival is inactive: 90%. As for `O=C(NCCc1ccccc1)c1ccc(CSc2nc3ccncc3n2Cc2ccc(F)cc2)cc1`, the figure is inactive: 85%. The result for `CCCCn1cc(S(=O)(=O)c2cccc(C)c2)c(=O)c2cc(F)c(N3CCOCC3)cc21` reads inactive: 84%; that for `CN(C)CCn1c2c(c(SCC(=O)Nc3ccc(F)cc3F)nc1=O)CCC2`, inactive: 83%; that for `CCOC(=O)c1c(S(=O)(=O)N2CCCC(C(=O)N3CCN(c4ccccc4)CC3)C2)c(C)n(C)c1C` (stereo unspecified), inactive: 73%. The result for `Cc1ccccc1OC(=O)CSc1nnc(-c2cccs2)o1` reads inactive: 85%. Turning to `Cc1ccc(C)c(Cn2nc(-c3cc(C)ccc3C)ccc2=O)c1`, the survival was inactive: 76%. Regarding `CC1(C)C=Cc2c(nc3ccccc3c2N)C1`, the survival is inactive: 114%.

`CC(C)(C)c1nc(CN2CCOCC2)cc(CN2CCOCC2)c1O`: the survival was inactive: 103%. As for `CCOC(=O)c1cc2c(=O)n3ccccc3nc2n(CC2CCCO2)c1=NC(=O)c1ccc(C)cc1` (stereo unspecified), the figure is inactive: 118%; as for `O=[N+]([O-])c1ccc(C(c2sc3nc(-c4ccco4)nn3c2O)N2CCN(c3cccc(Cl)c3)CC2)cc1` (stereo unspecified), inactive: 60%. Take `CCOc1ccc(S(=O)(=O)NCC(c2ccco2)S(=O)(=O)c2ccc(F)cc2)cc1` (stereo unspecified): the survival is inactive: 90%. Regarding `COc1cccc(N2CC(NC(=O)c3ccc(S(=O)(=O)N4CCCCC4)cc3)CC2=O)c1` (stereo unspecified), the survival is inactive: 83%.

For the compound `COc1ccc(-c2nc3ccccc3o2)cc1NC(=O)COc1ccc(C(C)(C)C)cc1`, the survival was active: 2%. The result for `Cc1ccc(CN2C(=O)C3(c4ccccc42)N(c2cccc(C(F)(F)F)c2)C(=O)CS3(=O)=O)cc1` (stereo unspecified) reads inactive: 68%; that for `CCc1cccc(NC(=O)Cn2nc(-c3cc(C)ccc3C)ccc2=O)c1`, inactive: 63%; that for `Cc1nnc(NCc2ccccc2)c2c1nnn2Cc1ccc(F)cc1`, inactive: 115%.

As to `COc1cc(NC(=O)c2cc3c(=O)n(Cc4cccs4)ccc3nc2C)cc(OC)c1OC`, the survival was active: -2%. The result for `CC(Oc1ccccc1Cl)C(=O)N1CCN(CCc2ccccn2)CC1` (stereo unspecified) reads inactive: 112%. As for `CCOC(=O)CN1CCN(c2ccc(F)cc2)CC1`, the survival was inactive: 115%. For the compound `O=c1cc(CSc2n[nH]c(-c3ccccc3)n2)[nH]c2ccccc12`, the survival is inactive: 152%. As to `COc1ccccc1NC(=O)CSc1oc(-c2cccs2)nc1S(=O)(=O)c1ccccc1`, the survival was inactive: 67%. As for `CC(Sc1nc(=O)cc(N)n1CCc1ccccc1)C(=O)Nc1ccccc1C#N` (stereo unspecified), the figure is inactive: 75%; as for `O=C(CN1C(=O)COc2ccc(S(=O)(=O)N3CCOCC3)cc21)N1CCN(c2ccc(F)cc2)CC1`, inactive: 78%. Regarding `COc1ccc(OC)c(NC(=O)CN2C(=O)CCc3cc(S(=O)(=O)N4CCCCC4)ccc32)c1`, the survival is active: 0%. As for `O=C(NC1CCCCC1)c1ccc2c(c1)N(Cc1ccc(Cl)cc1)C(=O)c1ccccc1S2(=O)=O`, the survival is inactive: 104%.

As for `CC(=O)N1c2c(cc(Br)cc2S(=O)(=O)N2CCN(c3cccc(Cl)c3)CC2)CC1C` (stereo unspecified), the survival was inactive: 75%. Regarding `COc1cccc(N2CCN(C(=O)c3cnn(-c4ccc(C)cc4C)c3C3CCN(C(=O)OC(C)(C)C)CC3)CC2)c1`, the survival is inactive: 78%.

On to `Cc1ccc(-c2ccc(C#N)c(=O)n2CC(=O)N2CCC(C(N)=O)CC2)cc1`, for which the survival is inactive: 91%. The result for `CCOc1ccc(C(NC(=O)c2ccco2)c2ccc(OC)c(OC)c2)cc1` (stereo unspecified) reads inactive: 106%; that for `CC(=O)c1cccc(NS(=O)(=O)c2ccc3c(c2)NC(=O)CC(=O)N3)c1`, inactive: 96%; that for `Cc1ccc(C)c(N2CCN(C3=C(c4ccccc4)C(=O)c4ccccc43)CC2)c1`, inactive: 88%.

Consider `CCN(Cc1ccccc1)C(=O)c1cc2c(s1)-c1c(C)cccc1OC2`, for which the survival is inactive: 71%. For `Cc1ccc(Cl)cc1NC(=O)Cn1c(=O)n(Cc2ccc(C(=O)NCc3ccc4c(c3)OCO4)cc2)c(=O)c2ccccc21`, the survival was inactive: 96%. `Cc1nn(CC(=O)Nc2ccccc2F)c(=O)c2c(C)n(-c3ccc(Cl)cc3)nc12`: the survival was inactive: 99%.

On to `O=c1c2cnn(-c3ccc(Cl)cc3)c2ncn1Cc1cccc(C(F)(F)F)c1`, for which the survival is inactive: 122%.

With `COc1ccc(NC(=O)CSc2cc(-c3ccccc3)nc(C)n2)cc1`, the survival was inactive: 114%. As for `CCN1CCN(c2c(S(=O)(=O)c3ccc(C)c(C)c3)cnc3ccc(F)cc23)CC1`, the survival is inactive: 70%. As for `CCOc1ccc(-c2csc(/C(C#N)=C/c3ccc(Br)cc3)n2)cc1`, the survival was inactive: 71%. The result for `CCCn1c(NCc2ccc(N(CC)CC)cc2)nc2ccccc21` reads active: 0%. The result for `CCCN(CCC)C(=O)Cn1c(=O)n(-c2ccc(OC)cc2)c(=O)c2ccc(C(=O)NCc3ccc(C)cc3)cc21` reads inactive: 75%; that for `CCC(=O)Nc1ccc2nc(SCCOc3ccc(C)cc3)sc2c1`, inactive: 92%; that for `CCS(=O)(=O)c1ncc(N(Cc2ccc(F)cc2)Cc2ccco2)c(C(=O)Nc2cc(C)ccc2C)n1`, inactive: 84%.

On to `Cc1ccc2oc(-c3ccccc3C)nc2c1`, for which the survival was inactive: 125%. The result for `CCOC(=O)C1CCN(C(=O)CN2c3ccc(CC)cc3-c3ccccc3S2(=O)=O)CC1` reads inactive: 113%; that for `CN1CCN(c2nc3c(S(=O)(=O)c4ccccc4)nnn3c3ccsc23)CC1`, inactive: 98%; that for `Cc1ccc(-n2c(SCC(=O)Nc3cccc(C)c3)nc3c(oc4ccccc43)c2=O)cc1`, inactive: 142%.

On to `CN(C)CCOC(=O)CC12CC3CC(C1)CC(CC(=O)OCCN(C)C)(C3)C2`, for which the survival is inactive: 84%. `CCOC(=O)C1CCCN(C(=O)c2ccc(-n3ccc4ccccc43)s2)C1` (stereo unspecified): the survival was active: -3%.

With `COC(=O)c1c(C)oc2ccc(N(C(=O)c3ccncc3)S(=O)(=O)c3c(C)cc(C)cc3C)cc12`, the survival was inactive: 141%. As for `O=C(NCc1ccccc1)c1nc(S(=O)(=O)Cc2ccccc2)ncc1Cl`, the survival was inactive: 42%. Turning to `CC(C)(C)c1ccc(C(=O)NC2(C(F)(F)F)C(=O)Nc3c2c(=O)[nH]c(=O)n3-c2ccccc2)cc1` (stereo unspecified), the survival was inactive: 66%.

On to `Cc1cccn2c(=O)c3cc(C(=O)NCc4cccnc4)c(=N)n(CCCO)c3nc12`, for which the survival was inactive: 76%.

In the case of `Cc1sc2ncn(CC(=O)N3CCN(c4ccc(Cl)cc4)CC3)c(=O)c2c1S(=O)(=O)N1CCN(c2ncccn2)CC1`, the survival is inactive: 103%.

`O=C(O)CCCc1nc2ccccc2s1`: the survival was inactive: 102%. As to `Cc1ccc(Cn2c(SCC(=O)C(C)(C)C)nc3ccsc3c2=O)cc1`, the survival was inactive: 90%. As for `CC1=Nc2cc(C(=O)NCCc3ccccc3)ccc2Sc2c(C)ccc(C)c21`, the figure is inactive: 80%; as for `COc1ccc(NC(=O)Cn2c(=O)n(-c3ccc(C)cc3)c(=O)c3c2cnn3C)cc1`, inactive: 137%. As for `O=C(Nc1ccc2nc(SCC(=O)N3CCCC3)sc2c1)c1cccc(Cl)c1`, the figure is inactive: 57%; as for `CC(C)CCNC(=O)C1CCN(c2nc3ccc(Cl)cc3[nH]2)CC1`, inactive: 90%; as for `COc1ccc(C)cc1NC(=O)c1ccc(=O)n(Cc2ccccc2)c1`, inactive: 89%. As for `CCOC(=O)c1c(C)[nH]c(C)c1S(=O)(=O)N(C)CC(=O)Nc1ccc(C)c(N(C)C)c1`, the figure is inactive: 73%.

For `CCOC(=O)c1cc2c(=O)n3ccccc3nc2n(Cc2ccco2)c1=NC(=O)c1c(F)cccc1Cl`, the survival was inactive: 86%. As for `CC1=C(C(N)=O)C(c2ccc(C)o2)C(C(N)=O)=C(C)N1`, the figure is inactive: 110%; as for `COC(=O)c1cc2occc2n1Cc1nc(-c2cccc(Cl)c2)oc1C`, inactive: 70%. As for `CC1CC(NC(=O)c2ncn[nH]2)CC(C)(C)C1` (stereo unspecified), the figure is inactive: 110%; as for `COc1ccc(NC(=O)c2c(C)oc3ccc(O)c(CN4CCCCCC4)c23)cc1Cl`, inactive: 89%; as for `COc1ccc(/C=C/c2nc(C#N)c(NCCc3ccccc3)o2)cc1OC`, inactive: 110%. Regarding `COc1ccc(CCNC(=O)c2cn(C)c3ccc(S(=O)(=O)N(C)C4CCCCC4)cc3c2=O)cc1OC`, the survival was inactive: 90%. The result for `CC(=O)Nc1ccc(S(=O)(=O)Nc2cc(-c3cn4ccccc4n3)ccc2C)cc1` reads inactive: 71%; that for `COc1ccc(Nc2nc3c(S(=O)(=O)c4ccccc4)nnn3c3ccsc23)cc1OC`, inactive: 125%.
